B1: OR4K15 (parent)
chain: GUUAACGGUCAUAGGCCAUGGAAACUAGGAGCACCAUUUCGCUGCCAGUGAAGAAAUGAACAAAGAAAAUCUGGGCCAGGCAGGCAUCAAAAGAAAUAGUCUUGCGCUCAACCAGAAAGUCUGUAAUCAUUUUAAGGGUA

Read counts are not given, so values of variants with three or more changes are uncertain.

Variants of B1 are the subject of the series. Kind of series: self-cleavage, relative activity (ratio to wild type); higher = more cleavage; in vitro, sequencing; the parent is a self-cleaving ribozyme.
With A24G A33G A51G A60G U103C, the self-cleavage turned out to be 0.24. In the case of A24C A62G A89G U102C, the self-cleavage turned out to be 1.73.

A23G A89U A94U U100C U108A A129U: the self-cleavage came to 0.03. Turning to A23G A24G A33G, the self-cleavage worked out at 1.01. The same measure for A23G A30G A96G U103C A118G: 0.12. With A23G A67G U108A, the self-cleavage was 0.01. To A23G A36U U72C A126U belongs 0.52. The same measure for A23G A92G A94G A118U: 0.26; for A23G G41A A56G A60G A111G: 0.01; for A23G U87C A92G: 0.97. The same measure for A23G A60U U100G: 1.02; for A24G A33G A56G G83A: 1.42. Consider A23U A82G A94G, for which the self-cleavage is 0.39. The same measure for A23G A54C G104A U120C: 0.01; for A24G A30G A86G A98U: 0.9; for A23G U39A A92G A126G: 0.71. Take A23G A60G U70A U133C: the self-cleavage is 1.18.

Regarding A23G U37G A52G A82G, the self-cleavage came to 0.28. The same measure for A23G U39C A62G U131C: 1.61; for A23G U38A A51G U87G A111G U131C: 0.01; for A24G A52G A64G: 1.54. To A23G A36G U38C A91U A111G belongs 0.07; to A24G A33G A67U, 1.17. The same measure for A23G A33G A135U: 0.48; for A23U U37C A69G A118G: 1.39; for A23C C85G A118U U131C: 0.35. A23G A69U A82U A90U G99C: the self-cleavage is 0.04. To A23G A55G A68G belongs 2.14; to A23U A36G A63G A67G U103C, 1.57. The same measure for A23G A30G U37C U131C: 0.66. Turning to A24C A30U U57C A86U A90G A111U, the self-cleavage was determined as 0.04. Regarding A23U A52G A63U A89G G106A A116G U131C, the self-cleavage was found to be 0.03. As for A23G U57G U108C, the self-cleavage stood at 0.01. To A23G A59U A63G belongs 1.63; to A23G A52U A92U, 1.2; to A23U A59G A63G A64G, 1.64.

For A23U A94G A129G U132C, the self-cleavage was 1.

On to A23G A64G U87C U103C A118U, for which the self-cleavage came to 0.04. Regarding A24G A52U A55G A60G A67U U87A A89C A126G, the self-cleavage was 0.76. On to A23U U70C A94G A129C U133C, for which the self-cleavage amounted to 0.24. To A23G A68G A78G belongs 0.27; to A23U U57C A63G A114C C128A, 0.07. On to A23G C42A A64G A96G, for which the self-cleavage came out at 0.63.

With A23G A59G U124C, the self-cleavage was found to be 0.36. A24G A27G A59G U108G A125U: the self-cleavage came to 0.01. On to A23U G31C G104A, for which the self-cleavage stood at 0.01. The same measure for A23G C35U U39C A66G A90G: 1.22; for A23G U87C U103C U133A: 0.12.

Regarding A23U A36G U38C, the self-cleavage turned out to be 0.81. The same measure for A23G U38C A78G A95G U127C: 0.08; for A23G G58U A60G A110G A140G: 0.11. As for A23G A30G U39A A69G, the self-cleavage stood at 1.6. The same measure for A23G A36U A116G U127C U130C: 0.19. In the case of A23G A52G A55G A60G U100A, the self-cleavage was determined as 0.41. As for A23G A51U A66G A90G, the self-cleavage was 0.1. In the case of A23G A52G U87C, the self-cleavage was 1.24. A23G A54G A126G U132C: the self-cleavage was found to be 0.92. To A23U A33U A90U A94G belongs 1.06; to A23G U37C A68G A78U A114G A129G, 0.06. For the variant A24G A36G A96G A118G, the self-cleavage worked out at 1.6.

For A23G U37C A116U, the self-cleavage was 0.35. The same measure for A23G U127G U131C: 0.76; for A23G G31A A52G U108C: 0. The same measure for A23G A78G U132C: 0.28. To A23G G50U A67G A92G U127A belongs 2.03; to A23G A54G A91G A135U, 0.97; to A24G A33G A36G A68G, 0.79. For A23G A60U A67G, the self-cleavage is 0.94. On to A23G U70A A86G A91U, for which the self-cleavage was determined as 1.11. The same measure for A23G A56G A64G: 0.39. On to A23G U37C A118G, for which the self-cleavage was 1.03. For the variant A23G U70C A95G U132C, the self-cleavage was 1.3. As to A23G A36C U37C A67G A89U, the self-cleavage came out at 1.57. As for A23G A56G A62G A117G, the self-cleavage is 0.3. With A23G A51G A89G, the self-cleavage was found to be 0.64.

In the case of A23G A62G U103A, the self-cleavage worked out at 0.72. Consider A23G A55G C109U, for which the self-cleavage was found to be 0.58. Take A23U U43C A89C U108C: the self-cleavage was 0.03. The same measure for A23G U70C G73U A117G: 0.14; for A23G A54G A64G U108C: 0.02. For A23G A56G A95C, the self-cleavage turned out to be 1.24.

In the case of A22U U87C U100C, the self-cleavage is 2.46.

A23U A36G A47G: the self-cleavage came out at 1.94. Take A23G A47G A52G A68G U72C: the self-cleavage was 0.28.

Take A23G A30G A33G U87C A92G U132C: the self-cleavage was 0.66. Regarding A23G U26C G80A, the self-cleavage was determined as 0.07.

In the case of A23G A36G A59G G104C, the self-cleavage was determined as 0.07. Take A24G A27G G73A: the self-cleavage is 0.15. To A24G A27G A55G A78G U120C belongs 0.18; to A23U A86U U87G A118G A129G, 1.25; to A23G A89U A96U A114G, 1.43. A23G A47G A110G: the self-cleavage was found to be 0.12. Consider A23G C46U A56G, for which the self-cleavage amounted to 1.66.

Turning to A23G A51G U72G, the self-cleavage was 0.41. The same measure for A24C U43C A90G U100C: 2.46; for A23G A59G U87C: 1.13.

As to A23G C35U A47G U87C, the self-cleavage is 0.33.

A23G A33G A64G: the self-cleavage worked out at 1.09. For A23G A24G A92U A95G A125G U127C, the self-cleavage amounted to 0.59. A24G A52G A62G A126G: the self-cleavage was determined as 1.11.

A23G A90G U120C: the self-cleavage came to 0.42. The same measure for A23G A60G U70C A86G: 0.76; for A23G A47G A125G: 0.49.

Turning to A23G A95G A114G A135U, the self-cleavage came to 1.14. For A23G A69G U100C U120A, the self-cleavage is 2.47.

Consider A23G A51U U57A U127C, for which the self-cleavage was found to be 1.09.

For A23G A27G A54C A94G, the self-cleavage was determined as 0.96. To A24C A36G A51G U120A U130C A134G belongs 1.41; to A23G U49C A63U U127C, 0.95. Turning to A23G U103C A116G A117G, the self-cleavage was 0.1. A23G A47G C128A: the self-cleavage stood at 0.79.

For the variant A23G A27C A36U A90G A95G U103C, the self-cleavage stood at 1.84. To A23G A78U U139C belongs 0.33; to A23G U57C A90G C105U U108C U127A, 0.02. The same measure for A23G A54G A67G: 1.87; for A23G G41A A59G U72A A89U U120C U139C: 0.02; for A23G U57A A78U U132C: 0.21.

Take A23G A89G U132C: the self-cleavage is 1.07.

Turning to A23G A51G A54G, the self-cleavage amounted to 1.14. As for A23G G31A A116G, the self-cleavage amounted to 0.46. Turning to A23G A36U A55G A118G U133C, the self-cleavage was 1.81. The same measure for A23G U39A A66G A82U: 0.09; for A23G A110C U127C: 0.06; for A23G A27G A36G U72A A114C U122C U127C: 0. The same measure for A23G A55G A60G: 0.82; for A23G A68G G137A: 1.99. The same measure for A24G A30G U43A C46U A125G: 0.55; for A23G A36C U131C: 0.22; for A24G A52G U103C: 0.63. For the variant A24G A52G U103A, the self-cleavage was 1.18. On to A24C A30U A51G, for which the self-cleavage turned out to be 0.42.

For A23G A47U A96G U108C A117G A140U, the self-cleavage is 0.02.

For A24C C46U A91U, the self-cleavage stood at 0.57. The same measure for A24G A47C A118C: 1.12. A23G A52U A56G: the self-cleavage was found to be 1.04. To A23G A60G U108C U122G U132A belongs 0; to A23G A95G U103A, 0.82. The same measure for A23G A94G G104A: 0.04. Turning to A23G A54G A66G U87C U102C A111C, the self-cleavage is 0.

In the case of A23G U57A A94G U102C, the self-cleavage was 1.11. To A24C U43C A90U U100G U122C belongs 2.29; to A24C A90U A126G U127C, 0.65; to A23G A56G U87C A94G, 1.54. For A23G U49C U70A A86G U108C A114G U124C, the self-cleavage stood at 0.01. On to A23G U38C A54G A55G A60G A94G A114G, for which the self-cleavage came out at 0.1. The same measure for A23U A69G A118G: 1.72. For the variant A23G U37C U38C A92U G123A, the self-cleavage came to 1.18. As for A23G A91G U97C, the self-cleavage amounted to 0.92. Turning to A23C G28A C85U U87C C121A U130C, the self-cleavage came to 0.4.

For A23G A59G C61A G80U A94G A96G A114G, the self-cleavage is 0.03. To A24C A27U A92U belongs 2.37; to A23G A33U A54U A94G A96G, 1.22; to A23G A69G U87C U120A, 1.09.

Regarding A24G A30G A64G A91G, the self-cleavage turned out to be 0.17. Take A23G G31U U43C A52G A66G: the self-cleavage was 1.22. The same measure for A23G A63G U72G: 0.13; for A23G A52G U108A: 0.04; for A23G U37C A54G C109U: 0.32. The same measure for A23G A33G A66G C105U A118G: 0.09. To A23G G53U A96G C107U belongs 0.03; to A23G A60G U87C, 1.46; to A23G A33G U38C A117U, 0.81. As for A23C A94G U102A, the self-cleavage came to 1.3.

Regarding A24G A47G A92G U132C, the self-cleavage turned out to be 0.32. To A23U A24C A64G belongs 0.67. With A23G U38C U72C U139C, the self-cleavage came to 0.59. As for A23G A56G U132C, the self-cleavage turned out to be 1.13.

The record behind these values is the RNAGym collection of RNA variant scans (doi:10.7554/elife.90254).
